{"source": "the supplement of paper PMC8728848", "assay_in_all_cases": "glycan array binding signal (z-score within array); higher = stronger binding", "settings_in_all_cases": "glycan notation: IUPAC condensed, linker removed", "key": {"GlcNAc(b1-6)GalNAc": {"target": "GlcNAc(b1-6)GalNAc", "summary_of_the_method": "(§1)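 Arrays were curated from the Consortium for Functional Glycomics database, 3228 in total, and kept only where the protein sequence was available. Binding is expressed as a within-array Z-score. This score was averaged across arrays of the same protein sequence at different concentrations or buffers and across linkers, and negative values can be read as non-binding.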"}, "GlcNAc3Prop(b1-4)GlcNAc": {"target": "GlcNAc3Prop(b1-4)GlcNAc", "summary_of_the_method": "as §1"}, "[1]": {"target": "GlcNAc6S(b1-3)Gal(b1-4)GlcNAc", "summary_of_the_method": "as §1"}, "Kdn(a2-3)Gal(b1-3)GalNAc": {"target": "Kdn(a2-3)Gal(b1-3)GalNAc", "summary_of_the_method": "as §1"}, "Kdn(a2-3)Gal(b1-3)GlcNAc": {"target": "Kdn(a2-3)Gal(b1-3)GlcNAc", "summary_of_the_method": "as §1"}, "Kdn(a2-3)Gal(b1-4)Glc": {"target": "Kdn(a2-3)Gal(b1-4)Glc", "summary_of_the_method": "as §1"}, "Kdn(a2-3)Gal(b1-4)GlcNAc": {"target": "Kdn(a2-3)Gal(b1-4)GlcNAc", "summary_of_the_method": "as §1"}, "[2]": {"target": "Kdn(a2-3)Gal(b1-4)[Fuc(a1-3)]GlcNAc", "summary_of_the_method": "as §1"}, "Kdn(a2-6)Gal(b1-4)GlcNAc": {"target": "Kdn(a2-6)Gal(b1-4)GlcNAc", "summary_of_the_method": "as §1"}, "[3]": {"target": "Man(a1-2)Man(a1-2)Man(a1-3)Man", "summary_of_the_method": "as §1"}, "[4]": {"target": "Man(a1-2)Man(a1-2)Man(a1-6)[Man(a1-3)]Man", "summary_of_the_method": "as §1"}, "Man(a1-2)Man(a1-3)Man": {"target": "Man(a1-2)Man(a1-3)Man", "summary_of_the_method": "as §1"}, "[5]": {"target": "Man(a1-2)Man(a1-3)[Man(a1-2)Man(a1-6)]Man", "summary_of_the_method": "as §1"}, "[6]": {"target": "Man(a1-2)Man(a1-3)[Man(a1-2)Man(a1-6)]Man(a1-6)[Man(a1-2)Man(a1-2)Man(a1-3)]Man", "summary_of_the_method": "as §1"}, "[7]": {"target": "Man(a1-2)Man(a1-3)[Man(a1-2)Man(a1-6)]Man(a1-6)[Man(a1-2)Man(a1-2)Man(a1-3)]Man(b1-4)GlcNAc(b1-4)GlcNAc", "summary_of_the_method": "as §1"}, "[8]": {"target": "Man(a1-2)Man(a1-3)[Man(a1-6)]Man(a1-6)[Man(a1-2)Man(a1-3)]Man(b1-4)GlcNAc(b1-4)GlcNAc", "summary_of_the_method": "as §1"}, "[9]": {"target": "Man(a1-2)Man(a1-6)[Man(a1-3)]Man(a1-6)[Man(a1-2)Man(a1-2)Man(a1-3)]Man", "summary_of_the_method": "as §1"}, "[10]": {"target": "Man(a1-2)Man(a1-6)[Man(a1-3)]Man(a1-6)[Man(a1-2)Man(a1-2)Man(a1-3)]Man(b1-4)GlcNAc(b1-4)GlcNAc", "summary_of_the_method": "as §1"}, "Man(a1-3)[Man(a1-6)]Man": {"target": "Man(a1-3)[Man(a1-6)]Man", "summary_of_the_method": "as §1"}, "[11]": {"target": "Man(a1-3)[Man(a1-6)]Man(a1-6)[Man(a1-2)Man(a1-3)]Man(b1-4)GlcNAc(b1-4)GlcNAc", "summary_of_the_method": "as §1"}, "[12]": {"target": "Man(a1-3)[Man(a1-6)]Man(a1-6)[Man(a1-3)]Man", "summary_of_the_method": "as §1"}, "[13]": {"target": "Man(a1-3)[Man(a1-6)]Man(a1-6)[Man(a1-3)]Man(b1-4)GlcNAc(b1-4)GlcNAc", "summary_of_the_method": "as §1"}, "[14]": {"target": "Man(a1-3)[Man(a1-6)]Man(b1-4)GlcNAc(b1-4)GlcNAc", "summary_of_the_method": "as §1"}, "Man(a1-6)Man": {"target": "Man(a1-6)Man", "summary_of_the_method": "as §1"}, "Man(b1-4)GlcNAc": {"target": "Man(b1-4)GlcNAc", "summary_of_the_method": "as §1"}, "Neu5Ac(a2-3)Gal": {"target": "Neu5Ac(a2-3)Gal", "summary_of_the_method": "as §1"}, "[15]": {"target": "Neu5Ac(a2-3)Gal(b1-3)GalNAc", "summary_of_the_method": "as §1"}, "[16]": {"target": "Neu5Ac(a2-3)Gal(b1-3)GalNAc(b1-3)Gal(a1-4)Gal(b1-4)Glc", "summary_of_the_method": "as §1"}, "[17]": {"target": "Neu5Ac(a2-3)Gal(b1-3)GalNAc(b1-3)Gal(b1-4)GlcNAc", "summary_of_the_method": "as §1"}, "[18]": {"target": "Neu5Ac(a2-3)Gal(b1-3)GalNAc(b1-4)[Neu5Ac(a2-3)]Gal(b1-4)Glc", "summary_of_the_method": "as §1"}, "[19]": {"target": "Neu5Ac(a2-3)Gal(b1-3)GalNAc6S", "summary_of_the_method": "as §1"}, "[20]": {"target": "Neu5Ac(a2-3)Gal(b1-3)GlcNAc", "summary_of_the_method": "as §1"}, "[21]": {"target": "Neu5Ac(a2-3)Gal(b1-3)GlcNAc(b1-3)Gal(b1-3)GlcNAc", "summary_of_the_method": "as §1"}, "[22]": {"target": "Neu5Ac(a2-3)Gal(b1-3)GlcNAc6S", "summary_of_the_method": "as §1"}, "[23]": {"target": "Neu5Ac(a2-3)Gal(b1-3)[Fuc(a1-4)]GlcNAc", "summary_of_the_method": "as §1"}, "[24]": {"target": "Neu5Ac(a2-3)Gal(b1-3)[Fuc(a1-4)]GlcNAc(b1-3)Gal(b1-3)[Fuc(a1-4)]GlcNAc", "summary_of_the_method": "as §1"}}, "note": "The list shows a part of the results.", "data": [{"binder": "Flo11 (Saccharomyces cerevisiae), Q1H8S8 (protein) MGSSHHHHHHSSGLVPRGSHMFPTALVPRGSSEGTSCNSIVNGCPNLDFNWHMDQQNIMQYTLDVTSVSWVQDNTYQITIHVKGKENIDLKYLWSLKIIGVTGPKGTVQLYGYNENTYLIDNPTDFTATFEVYATQDVNSCQVWMPNFQIQFEYLQGSAAQYASSWQWGTTSFDLSTGCNNYDNQGHSQTDFPGFYWNIDCDNNCGGTKSS", "values": [{"measurement": "glycan array binding signal (z-score)", "setting": "GlcNAc(b1-6)GalNAc", "result": -0.461}, {"measurement": "glycan array binding signal (z-score)", "setting": "GlcNAc3Prop(b1-4)GlcNAc", "result": -0.508}, {"measurement": "glycan array binding signal (z-score)", "setting": "[1]", "result": 0.409}, {"measurement": "glycan array binding signal (z-score)", "setting": "Kdn(a2-3)Gal(b1-3)GalNAc", "result": 0.387}, {"measurement": "glycan array binding signal (z-score)", "setting": "Kdn(a2-3)Gal(b1-3)GlcNAc", "result": -0.491}, {"measurement": "glycan array binding signal (z-score)", "setting": "Kdn(a2-3)Gal(b1-4)Glc", "result": -0.508}, {"measurement": "glycan array binding signal (z-score)", "setting": "Kdn(a2-3)Gal(b1-4)GlcNAc", "result": -0.496}, {"measurement": "glycan array binding signal (z-score)", "setting": "[2]", "result": 0.794}, {"measurement": "glycan array binding signal (z-score)", "setting": "Kdn(a2-6)Gal(b1-4)GlcNAc", "result": -0.508}, {"measurement": "glycan array binding signal (z-score)", "setting": "[3]", "result": -0.505}, {"measurement": "glycan array binding signal (z-score)", "setting": "[4]", "result": -0.507}, {"measurement": "glycan array binding signal (z-score)", "setting": "Man(a1-2)Man(a1-3)Man", "result": -0.503}, {"measurement": "glycan array binding signal (z-score)", "setting": "[5]", "result": -0.502}, {"measurement": "glycan array binding signal (z-score)", "setting": "[6]", "result": -0.505}, {"measurement": "glycan array binding signal (z-score)", "setting": "[7]", "result": -0.495}, {"measurement": "glycan array binding signal (z-score)", "setting": "[8]", "result": -0.495}, {"measurement": "glycan array binding signal (z-score)", "setting": "[9]", "result": -0.504}, {"measurement": "glycan array binding signal (z-score)", "setting": "[10]", "result": -0.502}, {"measurement": "glycan array binding signal (z-score)", "setting": "Man(a1-3)[Man(a1-6)]Man", "result": -0.502}, {"measurement": "glycan array binding signal (z-score)", "setting": "[11]", "result": -0.506}, {"measurement": "glycan array binding signal (z-score)", "setting": "[12]", "result": -0.511}, {"measurement": "glycan array binding signal (z-score)", "setting": "[13]", "result": -0.496}, {"measurement": "glycan array binding signal (z-score)", "setting": "[14]", "result": -0.495}, {"measurement": "glycan array binding signal (z-score)", "setting": "Man(a1-6)Man", "result": -0.504}, {"measurement": "glycan array binding signal (z-score)", "setting": "Man(b1-4)GlcNAc", "result": -0.499}, {"measurement": "glycan array binding signal (z-score)", "setting": "Neu5Ac(a2-3)Gal", "result": -0.5}, {"measurement": "glycan array binding signal (z-score)", "setting": "[15]", "result": 1.29}, {"measurement": "glycan array binding signal (z-score)", "setting": "[16]", "result": 3.08}, {"measurement": "glycan array binding signal (z-score)", "setting": "[17]", "result": 1.81}, {"measurement": "glycan array binding signal (z-score)", "setting": "[18]", "result": 1.08}, {"measurement": "glycan array binding signal (z-score)", "setting": "[19]", "result": -0.492}, {"measurement": "glycan array binding signal (z-score)", "setting": "[20]", "result": -0.499}, {"measurement": "glycan array binding signal (z-score)", "setting": "[21]", "result": 2.01}, {"measurement": "glycan array binding signal (z-score)", "setting": "[22]", "result": -0.511}, {"measurement": "glycan array binding signal (z-score)", "setting": "[23]", "result": -0.504}, {"measurement": "glycan array binding signal (z-score)", "setting": "[24]", "result": -0.487}]}]}
